Laboratory results from article PMC4336329 (PLoS ONE, 2015).
About 14,000 (4.5%) of roughly 310,000 compounds showed an effect of 50% or more. Effects have a minus sign here. The list shows a part of the results.

molecular target: human ether-à-go-go-related gene (hERG) potassium channel (human, UniProt Q12809); assay: primary screen, population patch clamp on CHO cells stably expressing hERG
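Note: peak tail current of the secondary pulse compared with the same well before compound.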

Chain of human ether-à-go-go-related gene (hERG) potassium channel (Q12809 whole entry, looked up): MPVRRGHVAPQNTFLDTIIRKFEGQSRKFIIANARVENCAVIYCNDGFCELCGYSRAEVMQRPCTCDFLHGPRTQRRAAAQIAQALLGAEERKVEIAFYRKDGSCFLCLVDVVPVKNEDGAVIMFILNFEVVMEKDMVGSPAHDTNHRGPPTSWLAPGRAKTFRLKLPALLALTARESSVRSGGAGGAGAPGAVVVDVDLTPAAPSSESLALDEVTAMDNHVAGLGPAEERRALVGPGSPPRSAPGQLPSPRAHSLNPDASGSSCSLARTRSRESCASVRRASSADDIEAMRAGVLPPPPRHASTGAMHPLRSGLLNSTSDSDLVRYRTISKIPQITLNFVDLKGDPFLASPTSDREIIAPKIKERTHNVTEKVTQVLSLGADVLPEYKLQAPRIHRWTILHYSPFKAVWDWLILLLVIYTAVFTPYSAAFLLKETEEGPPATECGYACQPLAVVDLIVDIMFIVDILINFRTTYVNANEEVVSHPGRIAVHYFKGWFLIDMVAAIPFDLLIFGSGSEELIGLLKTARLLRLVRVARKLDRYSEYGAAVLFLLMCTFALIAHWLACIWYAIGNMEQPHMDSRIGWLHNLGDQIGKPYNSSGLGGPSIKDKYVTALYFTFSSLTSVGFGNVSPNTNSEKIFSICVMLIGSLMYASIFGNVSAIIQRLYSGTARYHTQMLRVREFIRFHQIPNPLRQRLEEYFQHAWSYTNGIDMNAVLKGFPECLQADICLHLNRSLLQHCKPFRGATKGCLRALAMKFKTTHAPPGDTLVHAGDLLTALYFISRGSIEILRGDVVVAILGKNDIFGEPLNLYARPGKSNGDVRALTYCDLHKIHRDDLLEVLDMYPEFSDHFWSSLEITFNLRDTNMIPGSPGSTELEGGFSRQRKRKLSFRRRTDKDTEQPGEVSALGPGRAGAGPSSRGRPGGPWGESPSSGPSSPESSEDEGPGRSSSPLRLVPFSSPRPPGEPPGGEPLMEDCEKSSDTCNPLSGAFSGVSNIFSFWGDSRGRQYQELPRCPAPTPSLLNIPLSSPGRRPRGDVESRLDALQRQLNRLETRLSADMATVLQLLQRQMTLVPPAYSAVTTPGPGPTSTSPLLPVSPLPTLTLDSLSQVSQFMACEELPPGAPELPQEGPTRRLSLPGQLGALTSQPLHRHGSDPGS

SMILES	hERG current change (%, negative = inhibition) at 10uM [%]
c1ccc(CCNc2ncnc3nc[nH]c23)cc1	15.9
COc1cc(/C=N/NC(=O)c2cccc(C)c2)ccc1OCC(=O)Nc1ccccc1	-20.2
O=C1c2cnccc2CN1Cc1ccccc1	-11.6
CCNc1nc(Oc2ccc(=O)n(-c3ccccc3)n2)nc(N(C)C)n1	8.07
O=C(N/N=C/c1ccc(OCc2cnc(Cl)s2)cc1)c1ccncc1	-3.54
CC1CC(C)CN(C(=O)CCNC(=O)Cn2ccc3ccccc3c2=O)C1 (stereo not drawn)	-5.15
Cc1ccccc1CSCC(Nc1ccc(C(=O)O)cc1[N+](=O)[O-])C(=O)O (stereo not drawn)	4.1
COc1ccc2nc(C)cc(N3CCC(C(N)=O)CC3)c2c1	-33.7
Brc1cc2ccccc2[n+](Cc2ccccc2)c1.[Br-]	-21.7
O=C(NCc1ccco1)C(=O)NCC1OCCN1S(=O)(=O)c1ccc(Cl)cc1 (stereo not drawn)	-10.1
Cc1ccc(CN(C(=O)c2ccco2)C(C(=O)NC2CCCC2)c2ccc(N3CCOCC3)cc2)cc1 (stereo not drawn)	-29.5
O=C1CSCC(=O)N1c1ccccc1	6.15
CCOC(=O)NC(=O)/C(C#N)=C\Nc1ccc(Cl)cc1Cl	10.7
S=C(NCc1cccnc1)Nc1ccc2c(c1)OCO2	-0.573
CC(C)[C@H](NC(N)=O)C(=O)Nc1ccc(F)c(Cl)c1	30.6
O/N=C(/Cc1ccccn1)c1ccccc1	-0.738
Clc1ccc(OCc2nn3c(-c4ccco4)nnc3s2)c(Cl)c1	-21.8
O=C(C1COc2ccccc2O1)N1CCCCC1 (stereo not drawn)	6.42
Cc1ccc(S(=O)(=O)N(C)c2ccc(C(=O)Nc3ccc(C)cn3)cc2)cc1	14.3

SMILES	hERG current change (%, negative = inhibition) at 10uM [%]
CC1CN(CCOc2cccc(Oc3ccccc3)c2)CC(C)O1.O=C(O)C(=O)O (stereo not drawn)	5.01
CCOC(=O)Nc1oc2ccccc2c(=O)c1C	-14
CC1CCCC(NC(=O)COC(=O)CCSc2ccccc2)C1C (stereo not drawn)	20.6
O=C(c1ccccc1)N1CCCC(C(=O)N2CCN(c3ccccc3)CC2)C1 (stereo not drawn)	2.88
COC(C(=O)Nc1ccnn1C1CCN(C(=O)c2ccc(C)cc2)CC1)c1ccccc1 (stereo not drawn)	-27.5
CCOC(=O)CC(NC(=O)c1ccco1)c1ccc(C)cc1 (stereo not drawn)	5.28
CCOCCCNC(=O)C1CCCCN1S(=O)(=O)c1ccc(F)cc1 (stereo not drawn)	0.394
CC1(C)CC2CC(C)(CN2C(=O)COC(=O)c2ccc(Cl)cc2N)C1 (stereo not drawn)	-14.4
CC(OC(=O)COc1cccc2c1OC(C)(C)C2)C(=O)Nc1ccc(S(N)(=O)=O)cc1 (stereo not drawn)	2.78
Cc1[nH]n(-c2ccc([N+](=O)[O-])cc2)c(=O)c1C=NCCN1CCN(C(=O)c2ccc(Br)cc2)CC1	-76.6
COC(=O)c1ccccc1NC(=O)COC(=O)c1ccc(C)c(NC(=O)c2ccco2)c1	-25.7
COc1cccc2c(=O)n(CC(=O)N3CCN(c4ccccc4)CC3)ccc12	-6.68
O=C(NCCS(=O)(=O)N1CCN(c2cccc(Cl)c2)CC1)c1cc(=O)c2ccccc2o1	5.36
COc1ccc2c(c1)C=C(C(=O)NCc1ccc(Cl)cc1)CO2	-67
CCc1nn2c(=O)cc(CSCC(=O)Nc3ccccc3Cl)nc2s1	4.09
Cc1c(O)ccc(C(=O)CN2CCN(Cc3ccccc3)CC2)c1O	-27
CCOC(=O)Nc1ccc(S(=O)(=O)Nc2nccc(C)n2)cc1	6.04
CCOC(=O)N1CCC(=NNC(=O)COc2ccc(C#N)cc2)CC1	-3.27
COc1ccc2nc(C(C)O)[nH]c2c1 (stereo not drawn)	-4.88

SMILES	hERG current change (%, negative = inhibition) at 10uM [%]
CCCCn1cnc2c1c(=O)n(CC(=O)c1cc(C)n(C)c1C)c(=O)n2CC(C)C	-17.7
O=C(Cn1nnc(-c2ccccc2)n1)Nc1ccc2c(c1)OCO2	17.4
CCCC(=O)N1CCC(Cc2ccccc2)CC1	9.83
COc1ccc(Br)cc1CNC(=O)Cn1nc(C)n2cccc2c1=O	-10.1
Cc1nc(C)c(C(=O)OC(C)C(=O)Nc2ccc(F)cc2)s1 (stereo not drawn)	-7.03
CCCn1c(-c2ccc[nH]c2=O)nc2cc(C)c(C)cc21	29.3
COCCNC(=O)COc1coc(CN2CCN(Cc3ccccc3)CC2)cc1=O	12.3
Cc1cccc2nc3ccccc3nc12	3.53
O=c1cc(C(F)(F)F)c2cc3c4c(c2o1)CCCN4CCC3	-1.4
O=C(Nc1ccccc1)C(=O)c1c[nH]c2ccccc12	13.7
COc1cccc(NC(=O)COC(=O)/C=C/c2c(C)nn(-c3ccccc3)c2C)c1	-19
CCn1c(SCC(=O)Nc2ccc(OC)c(OC)c2)nc2c(c1=O)SCC2	-9.81
COc1ccc(N2C(=O)C3C4C=CC(C4)C3C2=O)c([N+](=O)[O-])c1 (stereo not drawn)	-2.92
Cc1ccc(Nc2nnc(SCc3ccccc3)s2)cc1	11.9
O=C(CN1CCN(c2ncc(C(F)(F)F)cc2Cl)CC1)N1CCN(c2ncc(C(F)(F)F)cc2Cl)CC1	11.7
COc1ccc(N(CC(=O)NC2CCCCC2)C(=O)CNC(=O)c2ccco2)cc1OC	-11.5
Cc1nnc(Nc2ccc(Cl)cc2)n(N)c1=O	8.16
O=C(O)c1ccccc1C(=O)Nc1ccc(S(=O)(=O)NC2CCCCC2)cc1	10.3
O=C(Nc1ccccc1)OC1CN=C(N[N+](=O)[O-])NC1 (stereo not drawn)	9.31
